# In PubChem BioAssay AID686978 (National Center for Advancing Translational Sciences (NCATS), 2013):
# Hit rate of the full screen: of about 420,000 compounds, about 64,000 (15%) were called active. This list was built around the results that the source calls inconclusive (neither active nor inactive); the mix of calls is not that of the screen. Calls follow the shape of the dose curve; as a rule, active = well fitted inhibition curve with a large enough effect; inconclusive = small, poorly fitted or top-dose-only effect; inactive = flat fitted curve, though single readings scatter. No potency is given beside an inconclusive call; the fits are too rough.
# Experiment: qHTS for Inhibitors of human tyrosyl-DNA phosphodiesterase 1 (TDP1): qHTS in cells in absence of CPT; also: nearly all actives have a fitted effect of over 55% in size
# Details: DT40 Tdp1-/- hTDP1 cells, no CPT, ATP luminescence, 48 h; activity change, negative = growth inhibition: at 46.2 µM (top of the series) unless noted
# Outline: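 Growth kinetics read by CellTiter-Glo luminescence after ≥48 hr at 37 °C. Cells: DT40 Tdp1-/- stably carrying human TDP1, 400 per well, compound exposure in the absence of CPT (DMSO vehicle).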
# % is scaled to controls: 0 for no effect and ±100 for the full control effect; potency is read from the fitted curve at half-maximal effect; tags tell the direction and shape of the fitted curve.
SMILES,"activity change, negative = growth inhibition",Potency
COc1ccc(OC)c(NC(=O)CCC(=O)Nc2nnc(C(C)C)s2)c1,inactive: -6.75%,
c1ccc2c(c1)CCN(c1nc3cc4c(cc3s1)OCCO4)C2,,"inconclusive [inhibitor, single point]"
COc1ccc(S(=O)(=O)c2nnn(-c3ccccc3Cl)c2N)cc1,inactive: -9.17%,
Nc1c(C(=O)Nc2ccccc2F)sc2nc(-c3cccnc3)ccc12,,"inconclusive [inhibitor, single point]"
CCN1CCN(c2ccc(S(=O)(=O)N3CCOCC3)cc2NC(=O)/C=C/c2ccc(C)cc2)CC1,,"inconclusive [inhibitor, single point]"
CCOc1ccccc1/C=C(/NC(=O)c1ccccc1)C(=O)N1CCCCC1,,"inconclusive [inhibitor, single point]"
CCCCN(CC)C(=O)C1CCCN(c2ncnc3onc(C)c23)C1 (centres undefined),,active: 20.6 µM
COc1ccc(/C=C/C(=O)NCC2Cc3cc(Cl)cc(-c4ncccn4)c3O2)cc1 (centres undefined),inactive: -15.4%,
O=C1NC[C@@H](CCCCN2C[C@H](Cc3ccc(O)cc3)N(CCC3CCCCC3)C(=O)C2=O)N(CCC2CCCCC2)C1=O,inactive: -19.2%,
CCN(CC)c1ccc(-c2nnc(SCC(=O)NCc3ccco3)n2C)cc1,,"inconclusive [inhibitor, single point]"
Cc1noc(C)c1C(=O)OCC(=O)NCCC1=CCCCC1,inactive: -17.4%,
c1ccc2sc(N3CCOCC3)nc2c1,inactive: 2.34%,
CC(NC(=O)c1cc2cc(F)ccc2[nH]1)c1ccccc1 (centres undefined),,"inconclusive [inhibitor, partial curve]"
CC(C)CC(=O)N1CCN(C(=O)c2ccc(F)cc2)CC1,inconclusive: -7.43% [inhibitor],
COc1cc(C)ccc1OCCOCCOc1ccccc1Br,,"inconclusive [inhibitor, partial curve]"
COc1cc(NC(=O)CCC2CCCC2)cc(-n2cnnn2)c1,,"inconclusive [inhibitor, single point]"
O=C1CC(N2CCN(c3ccccc3O)CC2)C(=O)N1Cc1ccccc1 (centres undefined),,"inconclusive [inhibitor, partial curve, poor fit]"
CC(=O)c1cccc(NC(=S)NC(=O)c2ccccc2Cl)c1,inactive: -9.69%,
COC(=O)c1ccc(NC(=O)Cn2nnc(-c3cccs3)n2)cc1,,"inconclusive [inhibitor, single point]"
CCCCCC(=O)Nc1cc(S(=O)(=O)N2CCCCC2)ccc1N1CCCCC1,,active: 14.6 µM
Cc1nc(C)c(-c2csc(Nc3ccccn3)n2)s1,,"inconclusive [inhibitor, single point]"
CO[C@H]1C=CO[C@@]2(C)Oc3c(C)c(O)c4c(O)c(c(/C=N/N5CCN(C6CCCC6)CC5)c(O)c4c3C2=O)NC(=O)/C(C)=C\C=C[C@H](C)[C@H](O)[C@@H](C)[C@@H](O)[C@@H](C)[C@H](OC(C)=O)[C@@H]1C,,active: 2.66 µM
CCOC(=O)c1ccc(CN(Cc2ccc(Br)cc2)S(=O)(=O)c2cccc(Cl)c2C)cc1,,"inconclusive [inhibitor, partial curve]"
CCOC(=O)C1(C)CCN1C(=O)c1cccc(C(F)(F)F)c1 (centres undefined),inactive: -25.8%,
O=C(Nc1cc(Cl)ccc1N1CCOCC1)c1ccc(F)c(S(=O)(=O)N2CCOCC2)c1,,"inconclusive [inhibitor, single point]"

SMILES,"activity change, negative = growth inhibition",Potency
Cc1ccsc1/C=N/NC(=O)Cc1ccc(Cl)cc1,,"inconclusive [inhibitor, single point]"
CCOc1ccc(Br)cc1C(=O)Nc1ccc(C(=O)NCC(C)C)cc1,,"inconclusive [inhibitor, single point]"
CC(=O)c1ccc2c(c1)c(C#N)c1ccccc1[n+]2[O-],,active: 18.4 µM
O=C(Nc1ccncc1)C1CC(=O)N(c2ccccc2)C1 (centres undefined),inactive: -5.41%,
CCOC(=O)c1c(C)[nH]c(C)c1S(=O)(=O)NCC(=O)NCc1cccc(C)c1,inactive: -10.1%,
CCOC(=O)Nc1nc(-c2ccccc2)c(C(=O)c2ccccc2)s1,,active: 0.651 µM
N#Cc1ccc(-c2nc3ccc(Br)cc3c(=O)n2O)cc1,,"inconclusive [inhibitor, single point]"
CC(=O)Nc1ccc2c(c1)nc(CCN1CCC(C)CC1)n2C,inactive: 3.13%,
CCOC(=O)N1CCN(C(=O)CN(c2ccc(Oc3ccccc3)cc2)S(C)(=O)=O)CC1,inactive: -29.9%,
Cc1ccc(S(=O)(=O)N2C[C@H]3C(=O)C[C@@H](c4ccc(Cl)cc4)N(S(=O)(=O)c4ccc(C)cc4)[C@H]3C[C@H]2c2cccc3ccccc23)cc1,inactive: -4.5%,
S=c1[nH]nc(NCCCN2CCOCC2)s1,inactive: -28.1%,
S=C(Nc1ccc(Cl)cc1)NN1CCOCC1,inactive: -4.32%,
N#Cc1c(NC(=O)CSC2=NCCS2)sc2c1CCCC2,,"inconclusive [inhibitor, single point]"
COc1cccc(N=Nc2ccc(O)c3ncccc23)c1,,active: 2.59 µM
COc1ccc(NC(=O)Nc2ccc(C)cc2OC(F)F)cc1OC,,active: 20.6 µM
COc1ccccc1NC(=O)COC(=O)c1[nH]c(=O)[nH]c(=O)c1N,inactive: 7.38%,
CCn1ncc(CN2CCCC(CNC(=O)c3ccc(F)cc3)C2)c1C (centres undefined),inactive: 3.44%,
C(=C\c1ccco1)/c1nc2ccccc2[nH]1,,active: 23.1 µM
COc1cc(OC)c2ccc(=O)oc2c1C(CCN1CCCC1)c1ccc(N(C)C)cc1 (centres undefined),,"inconclusive [inhibitor, partial curve]"
Cc1cc(C)c(NC(=O)CNC(=O)c2cc([N+](=O)[O-])ccc2N2CCOCC2)c(C)c1,inactive: -2.47%,
COc1cc(C(=O)NCC(c2ccc(Cl)cc2)N2CCOCC2)cc(OC)c1OC (centres undefined),,"inconclusive [inhibitor, single point]"
Cc1ccc(Cn2ccc(NC(=O)c3c(-c4ccccc4Cl)noc3C)n2)cc1,,"inconclusive [inhibitor, partial curve]"
CC(C)CC(C(=O)NC(C)(C)C)N(Cc1cccs1)C(=O)c1snc(C(N)=O)c1N (centres undefined),inactive: -24.4%,
CCc1ccc(C2C(C(=O)Nc3ccccc3C)=C(C)Nc3nc(SCc4cccc(OC)c4)nn32)cc1 (centres undefined),inactive: -18.5%,
Cc1ccc(NS(=O)(=O)c2cc([N+](=O)[O-])ccc2N/N=C/c2sc(N3CCOCC3)nc2-c2ccccc2)c(C)c1,,active: 18.4 µM

SMILES,"activity change, negative = growth inhibition",Potency
O=C(Nc1ccc(Cl)cn1)c1cccc(S(=O)(=O)N2CCCCCC2)c1,,"inconclusive [inhibitor, single point]"
CCOC(=O)CC(NC(=O)Cn1nnc(-c2ccccc2F)n1)c1ccccc1Cl (centres undefined),,"inconclusive [inhibitor, single point]"
COc1ccc(S(=O)(=O)N(CC(N)=O)C2CCCCC2)cc1Cl,,"inconclusive [inhibitor, single point]"
O=C(c1cccc(F)c1)N1CCN(c2ccc([N+](=O)[O-])c(N3CCOCC3)c2)CC1,,"inconclusive [inhibitor, single point]"
COc1cc2nc(SCc3ccc(Cl)cc3Cl)n(Cc3cccs3)c(=N)c2cc1OC,,"inconclusive [inhibitor, single point]"
Cc1ccc(C2C(C(N)=S)=C(N)OC3=C2C(=O)CC(C)(C)C3)cc1 (centres undefined),inactive: 2.84%,
COc1ccccc1CNC(=O)C1CC2Cn3c(nc4cc5ccccc5cc43)C2N1C (centres undefined),,"inconclusive [inhibitor, single point]"
CCc1ccc(-c2nn(-c3ccccc3)cc2CSC(=N)N)cc1,,active: 23.1 µM
NC(=O)C1=CC2C3C=CC2(O)C(=O)OC3O1 (centres undefined),,active: 5.8 µM
Cc1ccc2c(c1)N(CC(=O)N1CCCC1)C(=O)CO2,inactive: 0.725%,
Cc1nc(Nc2ccc(Cl)cc2)c2nnn(Cc3ccccc3)c2n1,,"inconclusive [inhibitor, single point]"
COc1cccc(NC(=O)CN(C)CC(=O)Nc2ccc(C)c([N+](=O)[O-])c2)c1,,active: 10.3 µM
O=C(CSc1ncc(-c2ccc(F)cc2)[nH]1)N1CCCCC1,inactive: -17.7%,
Cc1cc(NC(=O)Nc2ccc(Cl)cc2)n(C(C)(C)C)n1,inactive: 6.46%,
CCS(=O)(=O)c1ncc(N(Cc2ccco2)Cc2ccccc2F)c(C(=O)Nc2cccc(Cl)c2)n1,,"inconclusive [inhibitor, single point]"
CCOC(=O)CC1=C(C#N)C(c2cccnc2)C(C(=O)OCC)=C(N)O1 (centres undefined),,"inconclusive [inhibitor, single point]"
O=c1oc(-c2ccccc2Cl)nc2ccsc12,,active: 14.6 µM
COC(=O)n1ccc(C(=O)Nc2ccccc2F)n1,,"inconclusive [inhibitor, partial curve]"
COc1ccc2nc(/C(C#N)=C\c3ccc(C(=O)O)cc3)[nH]c2c1,,"inconclusive [inhibitor, single point]"
CC(=O)Nc1nc(-c2ccc([N+](=O)[O-])cc2)cs1,,"inconclusive [inhibitor, full curve]"
COc1ccc(NS(=O)(=O)c2cccc(C(=O)NNC(=O)c3ccc(NC(C)=O)cc3)c2)cc1,inactive: 0.135%,
Cn1c(O)c(N=NC(=O)c2cccc(S(=O)(=O)N3CCCCC3)c2)c2ccccc21,,"inconclusive [inhibitor, single point]"
O=C(O)CCCCCN1C(=O)C(O)=C(C(=O)/C=C/c2ccccc2)C1c1ccccc1[N+](=O)[O-] (centres undefined),inactive: -1.75%,
Cc1ccc(C)c(/C=N/n2cc(-c3ccccc3)[nH]c2=S)c1,,"inconclusive [inhibitor, single point]"
